Data published in paper PMC11267001, “RhoG facilitates a conformational transition in the guanine nucleotide exchange factor complex DOCK5/ELMO1 to an open state” (The Journal of Biological Chemistry, 2024).

Target: the molecule itself
Test: cryo-EM structure; DOCK5^FL/ELMO1^FL cross-linked with 1 mM BS3 (also a not cross-linked sample at 7.3 Å); 20 mM HEPES-NaOH pH 8.0, 300 mM NaCl, 1 mM TCEP, 0.06% digitonin

B1: human full-length DOCK5 (DOCK5^FL, […]) (natural protein)
chain: not shown
binding result: binds
